± gives the standard deviation of the averaged measurements. Some of the results follow.

In the assay the test system is PfAP2-G AP2 domain (GST-tagged). In words: gcPBM binding intensity (ln(normalized median fluorescence intensity)); higher = stronger DNA binding. The procedure, abridged: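 An Agilent 4 × 180k array carrying primer-extended double-stranded 36-bp intergenic genomic probes and negative controls received GST-tagged P. falciparum DNA-binding domains expressed in E. coli, about 25 μg on average, for 1 h. The binding buffer contained 1× PBS, 1% milk, 0.2 mg/ml BSA, 0.5% salmon testes DNA and 0.03% Triton X-100. Binding intensity is the top Masliner-normalised natural-log median intensity across replicate spots of either probe orientation, read after Alexa488 anti-GST antibody staining and a 488 nm scan.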
On to “ACATCTAGGCTTATTTTATGATACATGTGAATATAT [TGCATGCA_negctrl_site325]”, for which the “gcPBM binding intensity (ln)” value came out at 9.79 ± 0.099.

As to “GTTTTTGAGTAGTACACACACAATAAGGATGGATTC [CACACA_site3192]”, the “gcPBM binding intensity (ln)” value stood at 11.5 ± 0.97.

On to “ATAATTTCTATTTCACAAAAAAAAAAAAAAAAAAAA [CACACA_negctrl_site1012]”, for which the “gcPBM binding intensity (ln)” value came out at 9.53 ± 0.29.

As for “ACTAAAAGGCTTAAATGTACATATTATATATATATA [XGTACX_site5897]”, the “gcPBM binding intensity (ln)” value was determined as 11.1 ± 0.76.

For the sequence “CTTTTTTTTTTGGGGGTGCATGCAAGACATATATTT [GTGCAC_site9660]”, the “gcPBM binding intensity (ln)” value was determined as 11 ± 0.77.

For “ACATAACTTATATATACACACAATACAAATATATAT [CACACA_site2774]”, the “gcPBM binding intensity (ln)” value is 9.955 ± 0.007.

With TTGTTCTTTTGAAAGGTGCAAAAGAAAAATAATTAA, the “gcPBM binding intensity (ln)” value worked out at 10.2 ± 0.35.

In the case of “AGAAAACCGAAAGAGACACACAACATGTCGATTTAG [CACACA_site3764]”, the “gcPBM binding intensity (ln)” value amounted to 9.88 ± 0.085.

On to “GAATAATTAAAAGGTAGTACAAAGGTTATCAAAAGG [XGTACX_site8496]”, for which the “gcPBM binding intensity (ln)” value stood at 11.6 ± 0.93.

In the case of “GATATGATTATGTGATGGTGTTTTTGATAGATATTT [CACACA_negctrl_site1445]”, the “gcPBM binding intensity (ln)” value is 9.89 ± 0.12.

In the case of “TGTGTCAAGTTTAATAAACGCATATAATATATATGA [CACACA_negctrl_site607]”, the “gcPBM binding intensity (ln)” value was determined as 9.68 ± 0.014.

“TTTAAATTTTTATATTGTACTTTATTTATTTATTTA [XGTACX_site869]”: the “gcPBM binding intensity (ln)” value stood at 11.2 ± 0.85.

Consider “CATGACATATCCTGTAGTACAACGTATATATAAGAT [XGTACX_site2577]”, for which the “gcPBM binding intensity (ln)” value turned out to be 11.4 ± 0.72.

“AAAATAAAATCATAAAGTACAAAAAGAAAATAAAAA [XGTACX_site7376]”: the “gcPBM binding intensity (ln)” value amounted to 10.8 ± 0.43.

As to “TATATATGTAGACGTTGTACTTTTTTGTAAGTTTAA [XGTACX_site5638]”, the “gcPBM binding intensity (ln)” value was determined as 11.3 ± 0.82.

Regarding “AGGAATCTACATATATGTACATATATTGATATATTT [XGTACX_site137]”, the “gcPBM binding intensity (ln)” value is 11.1 ± 0.47.

In the case of “TTTAATTTTTATATAACACACATATTGTAATTATGT [CACACA_site4566]”, the “gcPBM binding intensity (ln)” value came to 9.7 ± 0.17.

For the sequence “ATGTTTAATTAAATATGTACTTATTATATTATATGT [XGTACX_site8137]”, the “gcPBM binding intensity (ln)” value turned out to be 11.5 ± 1.1.

On to “TGTGTTAATATGAATTTAAACATAAATAAATAAATA [CACACA_negctrl_site1589]”, for which the “gcPBM binding intensity (ln)” value was 9.685 ± 0.021.

Regarding “GAACATTTATTGTGTGTGCACAATTCTTTTTTAACC [GTGCAC_site9697]”, the “gcPBM binding intensity (ln)” value was 10.4 ± 0.16.

Regarding “TCAATAAATATACATACATGCATACATACATACATA [TGCATGCA_site197]”, the “gcPBM binding intensity (ln)” value came out at 9.91 ± 0.042.

As for “TCTTTTCTCGGAAGGGTGCAAGGAATTAATGAAATA [GTGCAC_site9706]”, the “gcPBM binding intensity (ln)” value is 10.2 ± 0.3.

In the case of “AATTTTCAATAGTATACACACAATTATATATATATA [CACACA_site1116]”, the “gcPBM binding intensity (ln)” value turned out to be 10.2 ± 0.36.

For the sequence “AATTGAAAAAGAAATTGTACATTTTATTTTTATTAT [XGTACX_site1973]”, the “gcPBM binding intensity (ln)” value is 10.9 ± 0.42.

For “ATATAATTTATATATTCACACAAGGAATACTTTTAT [CACACA_site5506]”, the “gcPBM binding intensity (ln)” value amounted to 10.2 ± 0.28.

In the case of “TAGTATAATATGAACACACACACACCGACAAAAAAA [CACACA_site5151]”, the “gcPBM binding intensity (ln)” value is 10.5 ± 0.4.

Regarding “ATACATATATATATATGTACATATGTATTTTTTATT [XGTACX_site105]”, the “gcPBM binding intensity (ln)” value was 11 ± 0.68.

“AATAAAATATATTCCTGTACATATGATTCTTTTTTT [XGTACX_site7980]”: the “gcPBM binding intensity (ln)” value is 10.9 ± 0.67.

For “TTTACATATTTATATACACACTTTTGCGTGCGTGGT [CACACA_site6647]”, the “gcPBM binding intensity (ln)” value amounted to 10.1 ± 0.13.

Turning to “ACTATACAGTTATACACACACATATATCTATAATAT [CACACA_site6283]”, the “gcPBM binding intensity (ln)” value was 10.18 ± 0.042.

Take “ATTACAAATACAAACACACAAATGTTTTTCATTCAA [CACACA_site7639]”: the “gcPBM binding intensity (ln)” value was 9.8 ± 0.042.

As for “ATGGAATAATCACGTACACACAAGAAAAAAAAAAAT [CACACA_site527]”, the “gcPBM binding intensity (ln)” value is 11.5 ± 1.

As for “GGATAATATATTAGAACACACATATATATGTAAAAA [CACACA_site185]”, the “gcPBM binding intensity (ln)” value amounted to 10.03 ± 0.042.

Take “AAACAAAAAATAAAATGTACATTTATTACGATAAGT [XGTACX_site2392]”: the “gcPBM binding intensity (ln)” value is 11.1 ± 0.57.

For the sequence “TTTTATTTGACAAGCACACACTTAAATATATATATA [CACACA_site5792]”, the “gcPBM binding intensity (ln)” value was found to be 10.2 ± 0.21.

“ACGAAGTATATGAATACACACATATTTTTAATGAAA [CACACA_site4070]”: the “gcPBM binding intensity (ln)” value was 10.1 ± 0.18.

Regarding “AGTAAATTTGATGGTCGTACAAAAAAAAAGTAGGAC [XGTACX_site2600]”, the “gcPBM binding intensity (ln)” value came to 11.5 ± 0.83.

Consider “TTTTTAATCAGAAATATTTATTAAAGAATTTTATAG [GTGCAC_negctrl_site725]”, for which the “gcPBM binding intensity (ln)” value is 9.555 ± 0.092.

Turning to “ATATACATAATTTGGAGTACAATATCATATAAATAT [XGTACX_site6334]”, the “gcPBM binding intensity (ln)” value is 11.5 ± 0.79.

For the sequence “GTATAAAATATTTTATGTACATAATATATATATATA [XGTACX_site2489]”, the “gcPBM binding intensity (ln)” value was determined as 11.2 ± 0.46.

As for “AAATAAAGGAAATGTATATCAACATTAAAATAAGGC [CACACA_negctrl_site441]”, the “gcPBM binding intensity (ln)” value was found to be 10.05 ± 0.085.

Take “AATGTACAAATACGTACACACATATATATATATATA [CACACA_site1542]”: the “gcPBM binding intensity (ln)” value was found to be 11.6 ± 0.93.

For the sequence “TTTTACAATAACAATACACACTATAATATGTAAATA [CACACA_site6772]”, the “gcPBM binding intensity (ln)” value is 10.03 ± 0.042.

“CATTTAAAATTTGTTTGTACATATATATATATATAT [XGTACX_site6729]”: the “gcPBM binding intensity (ln)” value came to 11 ± 0.66.

The record behind these values is the supplement of paper PMC11417369.
